Results published in PubChem BioAssay AID1347165 (National Center for Advancing Translational Sciences (NCATS), 2019).
Values joined by “and” are separate entries in the source; they are usually repeats but may differ in a detail not shown here. Identical values can stand only once. The campaign covered roughly 220,000 compounds. About 5,700 (2.6%) were called active. The shares of active, inactive and inconclusive entries below differ from those in the screen. Calls come from the whole dose curve; as a rule, active = well fitted inhibition curve with a large enough effect; inconclusive = small, poorly fitted or top-dose-only effect; inactive = no such curve, though single readings can be large or run the other way. Where the call is inconclusive, the potency comes from a doubtful curve fit.

Target: Lysine-specific demethylase 5B (Homo sapiens) (UniProt Q9UGL1)
Chain of UniProt Q9UGL1 (Q9UGL1 whole entry, looked up): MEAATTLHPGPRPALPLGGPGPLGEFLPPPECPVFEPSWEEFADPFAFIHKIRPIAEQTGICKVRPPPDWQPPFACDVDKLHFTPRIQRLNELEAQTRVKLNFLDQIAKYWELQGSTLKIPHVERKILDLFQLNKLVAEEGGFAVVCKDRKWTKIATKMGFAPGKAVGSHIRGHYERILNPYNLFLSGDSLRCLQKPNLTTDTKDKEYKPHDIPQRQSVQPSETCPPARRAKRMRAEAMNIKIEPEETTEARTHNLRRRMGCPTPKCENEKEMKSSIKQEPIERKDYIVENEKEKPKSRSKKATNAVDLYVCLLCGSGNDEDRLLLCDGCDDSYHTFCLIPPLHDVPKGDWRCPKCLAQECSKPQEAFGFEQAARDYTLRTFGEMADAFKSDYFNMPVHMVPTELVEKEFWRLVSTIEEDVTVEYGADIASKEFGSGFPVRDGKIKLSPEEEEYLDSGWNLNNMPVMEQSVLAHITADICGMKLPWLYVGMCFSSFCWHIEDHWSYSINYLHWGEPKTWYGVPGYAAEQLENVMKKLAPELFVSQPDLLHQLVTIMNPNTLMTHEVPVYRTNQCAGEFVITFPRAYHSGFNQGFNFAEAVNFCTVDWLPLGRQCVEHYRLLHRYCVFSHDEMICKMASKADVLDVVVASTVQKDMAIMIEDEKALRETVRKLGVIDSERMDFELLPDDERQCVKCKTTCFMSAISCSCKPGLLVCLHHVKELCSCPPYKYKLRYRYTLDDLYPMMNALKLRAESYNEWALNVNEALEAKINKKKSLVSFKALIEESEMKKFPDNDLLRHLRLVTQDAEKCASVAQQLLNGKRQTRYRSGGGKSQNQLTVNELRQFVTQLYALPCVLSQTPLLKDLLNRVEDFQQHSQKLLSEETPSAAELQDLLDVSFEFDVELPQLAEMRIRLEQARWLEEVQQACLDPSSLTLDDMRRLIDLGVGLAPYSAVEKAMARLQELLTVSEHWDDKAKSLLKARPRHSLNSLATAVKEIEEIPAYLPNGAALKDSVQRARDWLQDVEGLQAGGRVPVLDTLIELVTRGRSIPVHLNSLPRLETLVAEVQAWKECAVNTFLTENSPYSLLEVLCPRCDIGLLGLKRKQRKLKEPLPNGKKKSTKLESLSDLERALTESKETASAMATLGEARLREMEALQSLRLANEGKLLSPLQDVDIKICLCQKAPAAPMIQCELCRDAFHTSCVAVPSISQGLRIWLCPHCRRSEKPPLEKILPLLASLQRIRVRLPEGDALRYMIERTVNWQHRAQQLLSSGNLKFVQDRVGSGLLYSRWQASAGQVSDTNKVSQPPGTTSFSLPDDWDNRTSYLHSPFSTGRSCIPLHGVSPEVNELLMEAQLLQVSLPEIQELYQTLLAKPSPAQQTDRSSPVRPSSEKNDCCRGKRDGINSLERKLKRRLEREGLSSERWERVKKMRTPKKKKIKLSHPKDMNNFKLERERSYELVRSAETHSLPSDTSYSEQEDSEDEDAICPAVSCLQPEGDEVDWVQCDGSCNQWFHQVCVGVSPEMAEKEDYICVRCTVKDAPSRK
Experiment: Primary screen for KDM5B Histone Demethylases FDH-coupled qHTS; note: nearly all actives have a fitted effect of over 70% in size; for activity change, negative = inhibition: 0% is about no effect
Details: FDH-coupled NADH fluorescence (FDH is formaldehyde dehydrogenase); activity change, negative = inhibition: at 57.7 µM (top of the series) unless noted
Summary of the method: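 Measured: NADH fluorescence change, 30 min, RT. System: KDM5BΔAP 200 nM final, H3K4me3 peptide, α-KG, Fe(II), ascorbate, NAD⁺ plus FDH, pH 7.5 HEPES. Compounds: titrated, 10 min pre-incubation with enzyme.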
Potency is the fitted concentration of half-maximal effect; tags give direction and shape of the fitted curve.

| SMILES | activity change, negative = inhibition | Potency |
| --- | --- | --- |
| O=C(NCCC12CC3CC(CC(C3)C1)C2)c1ccccc1Cl | inactive: 5% |  |
| Cc1ccc(/C=C/C(=O)OC(C)C(=O)c2ccc(C)c(C)c2)o1 (stereo not given) |  | inconclusive: 31.6 µM [inhibitor, single point] |
| NC(=O)C(NC(=O)c1cc(-c2ccccc2)n[nH]1)c1ccccc1 (stereo not given) | inactive: 8.88% |  |
| Cc1ccc2c(c1)cc(C(=O)N1CCc3ccccc3C1)n2C | inactive: -7.97% |  |
| COc1cc(F)cc(-c2ncc3c(n2)OCCN(Cc2ccc(F)cc2F)C3=O)c1 |  | inconclusive: 39.8 µM [inhibitor, partial curve, poor fit] |
| COCCN1CCCCCC(O)c2cc(C(=O)N3CCN(c4ccccc4F)CC3)ccc21 (stereo not given) |  | inconclusive: 22.4 µM [inhibitor, partial curve, poor fit] |
| COc1ccccc1-c1cc(C(=O)NCc2cccnc2)c2cnn(C)c2n1 |  | inconclusive: 63.1 µM [inhibitor, partial curve, poor fit] |
| COc1ccc(C(C(=O)NCc2ccccc2)N(Cc2cccnc2)C(=O)c2snc(C(N)=O)c2N)cc1OC (stereo not given) |  | inconclusive: 25.1 µM [inhibitor, partial curve, poor fit] |
| Clc1ccccc1CSc1nncn2c1cc1occc12 |  | inconclusive: 25.1 µM [inhibitor, partial curve, poor fit] |
| O=C(CCCn1c(=O)c2cccn2c2ccccc21)Nc1cccc(Cl)c1 |  | inconclusive: 35.5 µM [inhibitor, single point] |
| CC(C)NC(=O)N1CCN2C(=O)c3cc(-c4ccc5c(c4)OCO5)ccc3NC(=O)[C@H]2C1 |  | inconclusive: 35.5 µM [inhibitor, single point] |
| CCCCN(CC)C(=O)c1c[nH]c2ccc(S(=O)(=O)Nc3cccc(OC)c3)cc2c1=O | inconclusive: -37.8% [inhibitor] |  |
| COc1ccc(NC(=O)CC2Nc3cccc4cccc(c34)NC2=O)cc1 (stereo not given) |  | inconclusive: 31.6 µM [inhibitor, partial curve, poor fit] |
| COc1ccc(-c2cc(C[C@@H]3CC[C@H](O)[C@@H](CNCc4ccccc4OC)O3)no2)cc1 | inactive: 150% [at 86.2 µM] |  |
| CCc1c(C(=O)Nc2ccc(C)c(C)c2)[nH]c(C)c1C(C)=O |  | inconclusive: 39.8 µM [inhibitor, partial curve, poor fit] |
| CNC(=O)[C@@H](Cc1ccccc1)N1CCC[C@H]1C(=O)NCCOC | inactive: -2.5% [at 86.2 µM] |  |
| CCOc1ccccc1CNC(=O)CCCn1c(=O)c2cccn2c2cccnc21 |  | inconclusive: 3.16 µM [inhibitor, partial curve, poor fit] |
| CN(Cc1cccnc1)Cc1nc(C2(O)CCN(C3CCC3)CC2)cs1 | inactive: -4.62% [at 86.2 µM] |  |
| Cn1nccc1OCc1cn2c(=O)n(C)cc(-c3cccc(OC(F)(F)F)c3)c2n1 | inactive: -23.2% [at 86.2 µM] |  |
| O=C1NC2(CCCN(C(=O)c3ccccn3)C2)Oc2ccccc21 (stereo not given) | inactive: -2.71% [at 86.2 µM] |  |
| O=C(O)c1ccc(-c2ccccc2)cc1F | inactive: -17.5% |  |
| CCN(Cc1ccco1)C(=O)[C@@H]1CN(c2ncccn2)C[C@H]1COC |  | inconclusive: 17.8 µM [inhibitor, partial curve, poor fit] |

| SMILES | activity change, negative = inhibition | Potency |
| --- | --- | --- |
| O=C(Nc1cccc(C(F)(F)F)c1)c1cc2nc(-c3ccccc3)cc(C(F)(F)F)n2n1 |  | inconclusive: 31.6 µM [inhibitor, partial curve, poor fit] |
| O=C(OCc1cc(=O)oc2cc(O)ccc12)C1CCCC1 |  | inconclusive: 31.6 µM [inhibitor, single point] |
| CCCOc1ccc(/C=C/C(=O)Nc2sc3c(c2C(=O)OCC)CCC(C)C3)cc1OC (stereo not given) | inconclusive: -31.1% [inhibitor] |  |
| O=S(=O)(c1ccc(Br)cc1)c1nc(-c2ccco2)oc1SCc1ccccc1F |  | inconclusive: 28.2 µM [inhibitor, partial curve, poor fit] |
| CCN1c2cc(C(=O)Nc3cc(F)cc(F)c3)ccc2C(=O)N2CCCCCC21 (stereo not given) |  | inconclusive: 25.1 µM [inhibitor, partial curve, poor fit] |
| COc1ccc(NC(=O)c2ccco2)cc1NC(=O)C(C)Oc1ccc(Cl)cc1Cl (stereo not given) |  | inconclusive: 17.8 µM [inhibitor, partial curve, poor fit] |
| CCOC(=O)CNC(=O)c1cc2c(=O)n(CC)c3ccccc3c2s1 |  | inconclusive: 1.26 µM [inhibitor, partial curve, poor fit] |
| COc1ccc(C(=O)N2CCN(c3nc4ncccc4o3)CC2)cc1C#N | inactive: -0.925% |  |
| CN1CCCN(S(=O)(=O)c2ccccc2F)c2ccccc21 |  | inconclusive: 14.1 µM [inhibitor, partial curve] |
| NC(=O)[C@@H]1CCCN1c1ccc(-c2nc(Cc3ccccc3)no2)cn1 |  | inconclusive: 28.2 µM [inhibitor, partial curve, poor fit] |
| COC(=O)c1cc2sc(C)cc2n1Cc1ccccc1 |  | inconclusive: 25.1 µM [inhibitor, single point] and inconclusive: 39.8 µM [inhibitor, single point] |
| O=[S+]1([O-])NCC2(CCN(Cc3ccccc3)CC2)Nc2ccccc21 | inactive: -15.1% |  |
| Cc1ccc(-c2nc(-c3nnn4c3COC(c3ccc(C)cc3)C4)no2)cc1 (stereo not given) | inactive: 23.7% |  |
| C[C@]12C[C@H](O)[C@@H]3c4ccc(O)cc4CC[C@H]3[C@@H]1CCC2=O | inactive: 24.7% |  |
| COc1ccc(NC(=O)c2ccc(-c3nnc4ccc(NC(=O)C5CCC5)cn34)cc2)cc1 |  | inconclusive: 39.8 µM [inhibitor, single point] |
| COc1ccc(-c2noc([C@@H]3Cc4nc[nH]c4CN3Cc3ccc(NC(C)=O)cc3)n2)cc1 |  | inconclusive: 14.1 µM [inhibitor, single point] |
| Cc1nc(NC2CCCC2)sc1C(=O)Nc1ccccc1 | inactive: 4.32% |  |
| Cc1ccc(CSc2oc(-c3ccco3)nc2S(=O)(=O)c2ccc(Cl)cc2)cc1 |  | inconclusive: 35.5 µM [inhibitor, single point] |
| CC(C)Cc1noc(-c2ccc(N3CCCC(C(C)(C)O)C3)nc2)n1 (stereo not given) |  | inconclusive: 31.6 µM [inhibitor, partial curve, poor fit] |
| Cc1ccc([S+](=O)([O-])c2nnn3c2nc(NCc2ccncc2)c2ccccc23)cc1C |  | active: 89.1 µM |
| Cc1ccc(C(=O)N2CCN(c3cc(-c4ccccc4)[nH]n3)CC2)c(C)c1 | inactive: 0.44% |  |
| O=C(Cc1cccc(Cl)c1)NCc1nnc2ccc(-c3ccccc3)nn12 |  | inconclusive: 28.2 µM [inhibitor, partial curve, poor fit] |

| SMILES | activity change, negative = inhibition | Potency |
| --- | --- | --- |
| COc1cccc(-c2nc(N3CCOCC3)cc3c2CN(C)C3=O)c1OC |  | active: 39.8 µM |
| CCOC(=O)Nc1ccc(NS(=O)(=O)c2cc(F)cc(F)c2)cc1 | inactive: 16.6% |  |
| CN(C)C(=O)/C=C/c1ccc(-c2ccccc2F)o1 |  | inconclusive: 28.2 µM [inhibitor, partial curve, poor fit] |
| O=C(NCc1ccccc1)c1ccc(NC(=O)N2CCSc3ncccc32)cc1 |  | inconclusive: 31.6 µM [inhibitor, partial curve, poor fit] |
| COc1ccc(-n2cc(-c3ccccc3)c3c(NCc4cccc(Cl)c4)ncnc32)cc1 |  | inconclusive: 35.5 µM [inhibitor, partial curve, poor fit] |
| O=C(NCc1cccs1)c1ccc(OC2CCN(Cc3ccccn3)CC2)cc1 |  | inconclusive: 3.98 µM [inhibitor, full curve] |
| COc1ccccc1C(=O)Nc1ccc2c(c1)CN(Cc1ccccc1F)C(=O)C(C)O2 (stereo not given) |  | inconclusive: 28.2 µM [inhibitor, single point] |
| CN(C)C[C@@H]1CN(S(C)(=O)=O)C[C@H]1NC(=O)CCc1c[nH]c2ccccc12 |  | inconclusive: 25.1 µM [inhibitor, partial curve, poor fit] |
| O=C(NC1CCCC1)c1cc(C2CC2)nc2onc(C3CCNCC3)c12 |  | active: 79.4 µM |
| COc1ccc(OC)c(Nc2nc3ccccc3nc2NS(=O)(=O)c2ccc(F)cc2)c1 |  | inconclusive: 25.1 µM [inhibitor, single point] |
| COc1ccc(-c2nnc3ccc(N4CCN(c5ccccn5)CC4)nn23)nc1 | inactive: -24.7% [at 86.2 µM] |  |
| COc1ccc(Nc2ncnc3onc(-c4ccc(Cl)cc4)c23)cc1Cl |  | inconclusive: 39.8 µM [inhibitor, single point] |
| COc1ccc(C(=O)NCc2ccnc3[nH]ccc23)cc1 |  | inconclusive: 31.6 µM [inhibitor, partial curve] |
| O=C(Nc1ccc(F)c(Cl)c1)C1Cc2ccccc2CN1S(=O)(=O)c1ccc(F)cc1 (stereo not given) |  | inconclusive: 25.1 µM [inhibitor, partial curve, poor fit] |
| CCCNC(=O)C(C)NC(=O)c1cc(C2CC2)nc2c1cnn2C(C)C (stereo not given) |  | inconclusive: 25.1 µM [inhibitor, partial curve, poor fit] |
| CN(C)C(=O)CN(C)c1nc(-c2ccccc2)c2ccccc2n1 |  | inconclusive: 25.1 µM [inhibitor, partial curve, poor fit] |
| CCn1ccnc1CN(C)Cc1cn(Cc2ccccc2)nc1-c1cc2ccccc2o1 | inactive: -15.5% |  |
| Cc1ccc(-n2nc(C)c3c(C)cc(=O)n(CC(=O)NC(C)C)c32)cc1 | inconclusive: -47.7% [inhibitor] |  |
| O=C(Nc1ccc(Cl)cc1Cl)c1cccn2nccc12 |  | active: 31.6 µM |
| CCc1cccc(CC)c1N(COC)C(=O)Cn1c(C)nc2ccccc21 |  | inconclusive: 31.6 µM [inhibitor, partial curve, poor fit] |
| CC(=O)N1C[C@@H]2CCCN3CCC[C@@H]([C@H]23)[C@H]1CCCC(=O)NC(C)C |  | inconclusive: 25.1 µM [inhibitor, single point] |
